We go through 56 sequences from the supplement of paper PMC11417369.

Some of the results follow.

The subject of the assay is PfHDP1 homeodomain (GST-tagged). As to the kind of experiment: gcPBM binding intensity (ln(normalized median fluorescence intensity)); higher = stronger DNA binding. The gist of the method:
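Each value is the highest Masliner-normalised natural-log median intensity across replicate spots of either orientation of a probe. The probes were primer-extended double-stranded 36-bp intergenic genomic sequences on an Agilent 4 × 180k array, alongside negative controls, exposed for 1 h to GST-tagged P. falciparum DNA-binding domains expressed in E. coli. Bound protein was picked up with Alexa488 anti-GST antibody and scanned at 488 nm.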
With “TTGAACCTGATAAATACACACAATATATATTTTTTT [CACACA_site2173]”, the “gcPBM binding intensity (ln)” value is 6.58.
Next, “GTGATAAATATTATATGTACATATAATATTTATGTC [XGTACX_site8023]”: 6.42; “TCAAAAACGAGACATGCATGCAATTCATTTTGATTC [TGCATGCA_site212]”: 6.5; “CCATTCTTACTTTATTGTACTTGAAAATTTTTTTTA [XGTACX_site6160]”: 6.7.
The same measure for “TAAATACTTTTATGTACACACATATAGATATATATT [CACACA_site5416]”: 6.59; for “TCATATAACACTTGATGTACAAGAATCCAAGTTGCA [XGTACX_site8758]”: 6.41; for “ATATGTATAATATATATATATATATATATATATATA [CACACA_negctrl_site623]”: 9.39.
Next, “TATATAATAAGATATGCATGCACATGTAAAATGAAT [TGCATGCA_site499]”: 10.2.
“TTAAAATAGATAAATAGTACTCTTTCCATTATGTAA [XGTACX_site6299]”: the “gcPBM binding intensity (ln)” value amounted to 6.18.
The same measure for “ATAATGTTTTATAATACACACATTAGATATATAAAT [CACACA_site7834]”: 6.67; for “ATATATTTTTTAAACACACACATAAATATTTGTGTA [CACACA_site2879]”: 6.8.
Next, “CAACACTTATTGAAACGTACGCATATAGTTTCTTTT [XGTACX_site8960]”: 6.26; “AAAGGATATGGACACACACACACATATATATATATA [CACACA_site8686]”: 9.24; “TTTATTTATATTTATACACACAAACATAATACTACT [CACACA_site7039]”: 6.82.
The same measure for “TCTAAGTATAAAGACACACAGAATAAAAAAAAATAT [CACACA_site2367]”: 6.64; for “AAAATATATATGTATGTTTATATGTTTATATATATT [XGTACX_negctrl_site337]”: 6.14.
As for “AAAAAAAAATTTAAGTGTACATTCCATTTTAGTTTA [XGTACX_site5286]”, the “gcPBM binding intensity (ln)” value was determined as 6.03.
Next, “AAGAAGCATAAATGTACACACATATTTATATATCAA [CACACA_site6743]”: 6.48; “TATTTAATATATTTATGTACATATTTATTTATTATT [XGTACX_site524]”: 6.57.
Next, “TATTTTTCTTTATTGGTACACACGAAAAAAAAATTG [CACACA_site3054]”: 6.33; “TAATATACATAATAATGTACATATTTTCATATATAC [XGTACX_site6913]”: 6.32; “CACAAAATAAATTAAACACACAACATCAGATATGTA [CACACA_site6529]”: 6.24.
“AACTATTTTATTATATGTACTTACGAATTTATAAAA [XGTACX_site5262]”: the “gcPBM binding intensity (ln)” value amounted to 6.53.
Next, “AATGTAGGTTTATTTACACACAAATATAAATATATA [CACACA_site1523]”: 6.24; “ATAAACTGATGTGTATGTACACATGTAATAATAAAT [XGTACX_site7649]”: 6.66.
As for “TGTGTTGTAACAAAATGTACGAGCTTGATGTAGAAT [XGTACX_site2293]”, the “gcPBM binding intensity (ln)” value was found to be 7.15.
Take “GGATAATATATTAGAACACACATATATCTGTAAAAA [CACACA_site4266]”: the “gcPBM binding intensity (ln)” value was found to be 6.49.
As for “TAATATAATATATGCACACAAATATGTATATATGTG [CACACA_site2134]”, the “gcPBM binding intensity (ln)” value stood at 9.77.
As for “ATGTAAAACATAAAATGTACATATTATACAAACTAT [XGTACX_site5797]”, the “gcPBM binding intensity (ln)” value worked out at 6.87.
Next, “TAAGTATAAATATTTACACACATTTGTTTTTTTTTA [CACACA_site7731]”: 6.3; “AATAAAATAATAAAAGCACACAAGAATACAGACAAA [CACACA_site112]”: 7.23.
The same measure for “TTGGATTTTCCATAATGTACACATAAAAGTGTTACA [XGTACX_site4544]”: 6.09.
The same measure for “TTTTAAAAAATATAATATAATATAATATAAAATAAA [CACACA_negctrl_site154]”: 6.19; for “ACAGTATCTGGTAGCTGTACGGATTGTAGAGAGTAG [XGTACX_site4872]”: 6.8; for “AGAATAATAAAATGGGTGCAATAGTTTTTTTTTTTT [GTGCAC_site9823]”: 9.17.
Regarding “TTCTTATCAAGAGAAAGTACATAAAAAATTAATAAG [XGTACX_site1821]”, the “gcPBM binding intensity (ln)” value was found to be 6.74.
The same measure for “CAAAACCTACATAACATACACACGCATATATAGAAT [CACACA_site2846]”: 6.61.
Next, “CCAACAAAAATAAGCACACACAAATATACATACATA [CACACA_site3606]”: 6.83.
For the sequence “CATGCAATATTAAACACACACTCATATAGCACAATA [CACACA_site6182]”, the “gcPBM binding intensity (ln)” value is 7.82.
On to “TCTTGACGAAGTAGAAGGATATATATATAAAAAAAA [CACACA_negctrl_site641]”, for which the “gcPBM binding intensity (ln)” value was 6.77.
The same measure for “AGGAGGTCAGTTCACAGTACCCAGAAAACTCTACGA [XGTACX_site1992]”: 5.74; for “TCGTCTCTTCTTGTTCTGTTTTAGAAGGCTATATAT [CACACA_negctrl_site180]”: 6.99.
With “TCCAGGTATTTATTCTGTACACATAAAACATTTTAT [XGTACX_site8472]”, the “gcPBM binding intensity (ln)” value turned out to be 6.44.
Next, “TATTAAAGGGGTTTCACACACATGTATAATTAATTT [CACACA_site200]”: 6.5.
“AATTTGTTATGTATATGTACATAAATAGATATATGA [XGTACX_site3930]”: the “gcPBM binding intensity (ln)” value amounted to 6.55.
“AATATGAACAGACACACACACACAAAAAAAAAAAAA [CACACA_site2012]”: the “gcPBM binding intensity (ln)” value is 6.71.
The same measure for “AACCATATTTAGATTACACACAGTTTAAATATTTTA [CACACA_site6712]”: 6.36; for “TGGTATATATTTCCTTGTACATATAATATATATTGT [XGTACX_site3961]”: 6.51; for “TAATATAGTATAGTATGTACATATAATTAGAATATT [XGTACX_site4053]”: 6.94.
With “ATATATATATATATATGTACATATTTTAATAATTAA [XGTACX_site8549]”, the “gcPBM binding intensity (ln)” value was found to be 9.22.
The same measure for “TGTTGTTACATATATACACACATATATATATTATAT [CACACA_site2397]”: 6.95.
Turning to “CGCGCACACGGACACACACACACACGGATATAAATA [CACACA_site7102]”, the “gcPBM binding intensity (ln)” value worked out at 7.18.
Next, “TAAATATATTTATATTGTACATTTATGTTGATACCA [XGTACX_site228]”: 6.37; “ATATATATATGTATATGTACATATATATACACATAT [XGTACX_site140]”: 8.31; “TTTTGTGAATTTTAGATTTTTTAATACAAGAATATT [CACACA_negctrl_site606]”: 6.05.
In the case of “TATATATATAATATATGTACTGATATGCTATTTACT [XGTACX_site841]”, the “gcPBM binding intensity (ln)” value stood at 7.42.
